In the RNAGym collection of RNA variant scans (doi:10.1093/nar/gkz1192):
Read counts are not given, so values of variants with three or more changes are uncertain.

B1: CPEB3 Ribozyme (parent)
chain: UAACAGGGGGCCACAGCAGAAGCGUUCACGUCGCAGCCCCUGUCAGAUUCUGGUGAAUCUGCGAAUUCUGCUGUAUAUCUC

Variants of: B1
Test: self-cleavage, relative activity (ratio to wild type); higher = more cleavage; in vitro, sequencing
Outline: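 After error-prone PCR and barcoding, CPEB3 ribozyme mutant libraries were transcribed with T7 RNA polymerase at 37°C for 5 hours, then given 15 min with DNase I before an EDTA stop, and they cleaved during both steps. Reverse transcription with template switching preceded Illumina sequencing. Relative activity divides a variant's cleaved/total read fraction by the unmutated ribozyme's. At least 5 reads were required per variant, and three batches were averaged.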
UAACAGGGGGCCACAGCAGAAGAGUUCACGUCGCAGCCCCAGUCAGAUUCUGGUGAGUCUGCGAAUUCUGCUGUACACCUC [C23A U41A A57G U76C U78C] showed a self-cleavage of 0.05. UAACAGGGGGCCACAGCAGAAGAGUUCACGUCGCAGCCCCUGUCAGAUUCUGGUGAGUCUGCGAAUACUGCCGUAUAUCGC [C23A A57G U67A U72C U80G] showed a self-cleavage of 0.09. Work on UAACAGGGGGCCACAGCAGAAUCGUCCACGUCGCAGCCCCUGUCAGAUUCUGGUGAAUCUGCGGAUUCUGCUGUAUACCUC [G22U U26C A64G U78C] yielded a self-cleavage of 0.07. Variant UAACAGGGGGCCACAGCAGAAUCGUUCACGCCGCUGCCCCUGUCGGAUUCUGGUGAAUCUGCGAAUUCUGCUGUAUAUCUC [G22U U31C A35U A45G] has a self-cleavage of 0.2. For UAACAGGGGGCCACAGCAGAAGAGUUCACGUCGCAGCCCCUGUCAGAUCCUGGUUCAUCCGCGAAUUCUGCUGAAUUUCUC [C23A U49C G55U A56C U60C U74A A77U], the self-cleavage was 0.07. With UAACAGGGGGCCACAGCAGAAGAGUUCACGCCGCAGCCCCGGUCAGAUUCUGGUGAAUCUGCGAACACUGCUGUAUAUCUC [C23A U31C U41G U66C U67A] the self-cleavage was 0.09. For UAACAGGGGGCCACAGCAGAAGAGUUCACGUCGCAGCGCCAGUCAGAUUCCGGUGAAUCUGCGAAUUCUGCUGUAUAUCUC [C23A C38G U41A U51C], the self-cleavage was 0.12. Variant UAACAGGGGGCCACAGCAGAAGAGUUCGCGUCGCAGCCCCUGUCAGAUCCUGGUGAUUCUGCGAAUUCUGCUGUAUAUCUC [C23A A28G U49C A57U] has a self-cleavage of 0.02. In the case of UAACAGGGGGCCACAGCAGAAGAGUUCACGACGCAGCCCCUGUCAGAUUCUGGUGAAUCUGCGGAUUCUGCUGUAUAUCUC [C23A U31A A64G], the self-cleavage is reported as 0.11. UAACAGGGGGCCACAGCAGAAGAGUUCACGUCGCAGCCCCCGUCAGAUUCUGGUGAAUCUGCGAAUACCGCCGUAUAUCUC [C23A U41C U67A U69C U72C] gave a self-cleavage of 0. With UAACAGGGGGCCACAGCAGAAGAGUUCACGUCGCAGCCCCUGUCUGUUCCUGGUGAAUCCGCGAAUACUGCUGUAUAUCUC [C23A A45U A47U U49C U60C U67A] the self-cleavage was 0.06. Variant UAACAGGGGGCCACAGCAGAAGAGAUCAGGUCGCGGCCCCCGUCAGAUUCAGGUGAAUCUGCGAGUUCUGCUGUAUAUCUC [C23A U25A C29G A35G U41C U51A A65G] has a self-cleavage of 0.13. With UAACAGGGGGCCACAGCAGAAUCGUCCACGUCGCAGCCCCUGUCAGAUUCUGGUGAAUCUGCGAAUUCUGCAGUAUAUAUC [G22U U26C U72A C79A] the self-cleavage was 0.05. In the case of UAACAGGGGGCCACAGCAGAAGAGUUCACGUCGCAGCCCCCGUCAGCUUCUGGUGAAUCUGCGAAUUCUGCUGUACAUCUC [C23A U41C A47C U76C], the self-cleavage is reported as 0.19. UAACAGGGGGCCACAGCAGAAGAGUCUACGUCGCAGCCCCAGUCAGAUUCUGGUGGAUCUGCGAAUUCUGCUGUAUAUCUC [C23A U26C C27U U41A A56G] showed a self-cleavage of 0.34. For UAACAGGGGGCCACAGCAGAAGAGAUCACGUCGCAGCCCCUGUCAGAUUCUGGUGAAUCAGCGUAUUCUGCUGUAUAUCUC [C23A U25A U60A A64U], the self-cleavage was 0.13. UAACAGGGGGCCACAGCAGAAGAGUCCACGUCGCAGCCCCUGCCGGAUUCUGGUGAUUCUGUGAAUUCUGCUGUAUAUCUC [C23A U26C U43C A45G A57U C62U] gave a self-cleavage of 0.04. In the case of UAACAGGGGGCCACAGCAGAAGAGUUCGCGCCGCAGCCCCUGUCAGAUUCUGGUGGAUCUGAGAAUCCUGCUGUAUAUCUC [C23A A28G U31C A56G C62A U67C], the self-cleavage is reported as 0.08. Variant UAACAGGGGGCCACAGCAGAAGAGUUCACGUCGCAGCCCCUGUCAGAUCCUGGUGAAUCUGCGAGUUCUGCUGUGUAUCUC [C23A U49C A65G A75G] has a self-cleavage of 0.04. In the case of UAACAGGGGGCCACAGCAGAAGAGUUCACGUCGCAACCCCUGUCAGAUUCUGGUGUAUCUGCGAGUUCUGCUGUAUAUCUC [C23A G36A A56U A65G], the self-cleavage is reported as 0.18. Work on UAACAGGGGGCCACAGCAGAAUCGCUCACGUCGCAGCCCCUGUCAGACUCUGGUGAAUCUGCGAAUUCUGCUGUAUAUCUC [G22U U25C U48C] yielded a self-cleavage of 0.24. UAACAGGGGGCCACAGCAGAAGAGUUCACGUCGAAGCCCCCUUCAGAUUCUGGUGAAUCCGCGAAUUCUGCUGUAUAUCUC [C23A C34A U41C G42U U60C] showed a self-cleavage of 0.07. UAACAGGGGGCCACAGCAGAAUCGUUCACGUCGCAGCCCCUGUCUGUUUCUGGUGGAUCUGCGAAUUCUGCUGUAUAUCUC [G22U A45U A47U A56G] showed a self-cleavage of 0.08. UAACAGGGGGCCACAGCAGAAGAGUUCACGUCGCAGCCCUUGUCAGAUUCUGGUGAAUCUGCGAAUUCCGCUGCAUAUCUC [C23A C40U U69C U74C] showed a self-cleavage of 0.08. In the case of UAACAGGGGGCCACAGCAGAAGAGUUCACGUCGCAGCCCCUGUCAGAUUCUGGUGAAUCUGCGGAUACUGCUGUAUAUCUC [C23A A64G U67A], the self-cleavage is reported as 0.28. UAACAGGGGGCCACAGCAGAAUCGUUCACGUCGCGGCCCCUGUCAGAUUCUGGUGAAUCUGCGAGUUCUGGUGUAUAUCUC [G22U A35G A65G C71G] gave a self-cleavage of 0.1. Variant UAACAGGGGGCCACAGCAGAAGAGUUCGCGUCGCAGCCCCAGUCAGAUUCUGGUGAAUCUGCGAAUUCUGCUGUAUAUCUC [C23A A28G U41A] has a self-cleavage of 0.41. For UAACAGGGGGCCACAGCAGAAGAGUUCACGCCGCUGCCCCUGUCAGAUUCAGGCGGAUCAGCGAAUUCUGCUGUAUAUCUC [C23A U31C A35U U51A U54C A56G U60A], the self-cleavage was 0.08. Variant UAACAGGGGGCCACAGCAGAAUCGUCCACGGCGCAGCCCCUGUCAGAUUCUGGCGGAUCUGCGAAUUCAGCUGUACAUCUC [G22U U26C U31G U54C A56G U69A U76C] has a self-cleavage of 0.04. Variant UAACAGGGGGCCACAGCAGAAUCGUUCACGUCGCAGCCCGUGUCAGAUUCUGGUGAAUCUGUGAAUUCUGCUGUAUAUCUC [G22U C40G C62U] has a self-cleavage of 0.13. Variant UAACAGGGGGCCACAGCAGAAGAGUUCACGUCGCAGCCCCUGUCAGAUUCUGGUGGAUCUGCGAAUUCUGAUGUAUAUCCC [C23A A56G C71A U80C] has a self-cleavage of 0.11. For UAACAGGGGGCCACAGCAGAAUCGUCCACGUCGCAGCCCCAGUCAGAUUCUGGUGAAUCUGCGAAUUCUGCCGUAUAUCUC [G22U U26C U41A U72C], the self-cleavage was 0.16. For UAACAGGGGGCCACAGCAGAAGAGUCCACGCCGCAGCCCCUGUCAGACUCUGGUGAAUCUGCGAAUUCUGCUGUAUAUCUC [C23A U26C U31C U48C], the self-cleavage was 0.11. UAACAGGGGGCCACAGCAGAAGAGUUCGCGUCGCUGCCCCUGACAGAUUCUGGUGAAUCUGCGAAUCCUGCUGUAUGUCUC [C23A A28G A35U U43A U67C A77G] showed a self-cleavage of 0.07.
